The campaign covered roughly 390,000 compounds. About 930 (0.24%) were called active. This list was built around the results that the source calls inconclusive (neither active nor inactive); the mix of calls is not that of the screen. Calls follow the shape of the dose curve; as a rule, active = well fitted activation curve with a large enough effect; inconclusive = small, poorly fitted or top-dose-only effect; inactive = no such curve, though single readings can be large or run the other way. Potencies beside an inconclusive call are fits to weak or partial responses and may not hold up.
assay: qHTS for Suppressors of FUS Proteinopathy: Primary screen using FUS-linked yeast assay; also: nearly all actives have a fitted effect of over 55% in size;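 as to growth rescue (activation): plate controls were DMSO vehicle for no effect and reference control for full effect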; conditions: S. cerevisiae FUS-expressing, OD600, 24 h; Potency: growth rescue; growth rescue (activation): at 76.6 µM (top of the series)
Procedure, shortened: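 FUS-expressing yeast, raffinose-pregrown, induced in 2% galactose minimal medium at OD 0.005; compounds in a dilution series, 24hr at 30C. Growth restoration read as absorbance at 600 nm. CP55940 positive control, DMSO negative.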
Potency is read from the fitted curve at half-maximal effect; tags tell the direction and shape of the fitted curve.

Row | Structure (SMILES) | Potency | growth rescue (activation)
1 | N#Cc1ccsc1NC(=O)C1CCN(S(=O)(=O)c2cccs2)CC1 | inconclusive: 3.98 µM [activator, single point] | –
2 | COCCNC(=O)c1ccc(CSc2nc3ccccc3s2)cc1 | – | inactive: 18.6%
3 | COC(=O)[C@]12C[C@H](CC(=O)NCc3cccs3)C(=O)N(Cc3cccc4ccccc34)C1=C[C@H](C(C)C)O[C@@H]2C1CC1 | inconclusive: 5.62 µM [activator, full curve] | –
4 | COc1cc2nc(SCC(=O)Nc3ccccc3C)n3nc(CCn4c(C)nc5ccccc54)nc3c2cc1OC | inconclusive: 10 µM [activator, partial curve, poor fit] | –
5 | CCCCCCCCN1C(=O)[C@@H](CC(=O)N2CCN(C(=O)OCC)CC2)C[C@@]2(C(=O)OC)C1=C[C@H](C(C)C)O[C@@H]2C1CC1 | inconclusive: 10 µM [activator, full curve, poor fit] | –
6 | C/C(=N\NC(=S)NCc1ccccc1)c1cccs1 | – | inactive: 14.6%
7 | NS(=O)(=O)c1cc(C(=O)OC2CCOC2=O)ccc1Cl (stereo not drawn) | – | inactive: 13.8%
8 | C=Cc1ccc(C(=O)N2CCC(n3nnc4ncccc43)CC2)cc1 | – | inactive: -13.5%
9 | COc1ccc(N2CCN(C(=O)CCC(=O)N3CCOc4ccc(C)cc43)CC2)cc1 | – | inactive: 11%
10 | CC(Cl)C(=O)N1CCC(C(=O)NCC2COc3ccccc3O2)CC1 (stereo not drawn) | – | inactive: -15.3%
11 | CCCN(C(=O)CCc1nc(-c2ccc(C)cc2)no1)c1ccc(OCC)cc1 | inconclusive: 35.5 µM [activator, partial curve, poor fit] | –
12 | Cc1ccc(N2C(=O)C(CC(=O)Nc3cccc(F)c3)N(CCc3ccccc3F)C2=O)cc1 (stereo not drawn) | inconclusive: 35.5 µM [activator, single point] | –
13 | Cc1cc(C)c(OCC(=O)N2CC=C(c3ccccc3)CC2)c(C)c1 | inconclusive: 35.5 µM [activator, single point] | –
14 | Cc1cc(C=C2C(=O)c3ccccc3C2=O)c(C)n1-c1ccc(C(=O)O)cc1 | inconclusive: 44.7 µM [activator, partial curve, poor fit] | –
15 | COc1cccc2sc3ccc(C#Cc4ccc(N)cc4)cc3c(=O)c12 | active: 31.6 µM | –
16 | O=c1[nH]c(N/N=C\c2ccc3c(c2)OCO3)nc2ccccc12 | inconclusive: 50.1 µM [activator, single point] | –
17 | Cc1ccc(C(=O)Cn2c(NCCO)nc3ccccc32)cc1 | – | inconclusive: -84.7% [activator]
18 | COc1ccc(N(CC(=O)N2CCc3ccccc3C2)S(=O)(=O)c2ccccc2)cc1 | inconclusive: 50.1 µM [activator, partial curve, poor fit] | –
19 | Cc1cc(C)cc(OCCNC(=O)CCc2ccccc2)c1 | – | inactive: 25.4%
20 | COc1ccc(NC(=O)C2Cc3c(-c4ccncc4)ccnc3O2)cc1OC (stereo not drawn) | – | inactive: -24.4%
21 | O=C(Nc1ccc2c(c1)OCCO2)C(c1cc2ccccc2o1)N1CCC(Cc2ccccc2)CC1 (stereo not drawn) | active: 15.8 µM | –

Row | Structure (SMILES) | Potency | growth rescue (activation)
22 | CCc1csc(N2[C@H](CN(CCOC)S(=O)(=O)c3ccccc3[N+](=O)[O-])[C@H](c3ccccc3)[C@@H]2CO)n1 | inconclusive: 15.8 µM [activator, partial curve] | –
23 | O=C(Cn1ncc2c3ccccc3n(Cc3ccccc3F)c2c1=O)NCC1CCCO1 (stereo not drawn) | inconclusive: 22.4 µM [activator, partial curve, poor fit] | –
24 | CC1CCN(S(=O)(=O)c2cc(C(=O)N3CCN(c4cccc(Cl)c4)CC3)n(C)c2)CC1 | inconclusive: 50.1 µM [activator, single point] | –
25 | CCCCCCCCN1C(=O)[C@H](CC(=O)NCc2ccc(OC)c(OC)c2)C[C@@]2(C(=O)OC)CC(C)(C)CC=C12 | inconclusive: 14.1 µM [activator, partial curve] | –
26 | Cc1c2cc(O)c(=O)cc-2oc2cc(O)c(O)cc12 | inconclusive: 56.2 µM [activator, single point] | –
27 | CN(c1nnc(NC(=O)Nc2ccccc2C(F)(F)F)s1)C1CCCCC1 | – | inactive: 1.36%
28 | COCCNC(=S)N(CCc1c(C)[nH]c2ccc(C)cc12)Cc1cc(OC)c(OC)c(OC)c1 | inconclusive: 39.8 µM [activator, partial curve, poor fit] | –
29 | CCN1CCN(CC(=O)c2cc(Cl)ccc2Cl)CC1 | – | inactive: -27%
30 | CC(=O)N1CCN(Cc2cc(=O)oc3ccccc23)CC1 | – | inactive: -19.8%
31 | Cn1nnnc1Sc1ncnc2scc(-c3cccc4c3sc3ccccc34)c12 | inconclusive: 31.6 µM [activator, single point] | –
32 | CC(C)C[C@@H]1CN(CCCC[C@H]2CNC(=O)C(=O)N2CCC2CCCCC2)C(=O)C(=O)N1Cc1ccccc1 | inconclusive: 28.2 µM [activator, partial curve, poor fit] | –
33 | CCOc1ccc(NC(=O)CC2C(=O)N(c3ccccc3)C(=O)N2CCc2sccc2C)cc1 (stereo not drawn) | inconclusive: 39.8 µM [activator, partial curve, poor fit] | –
34 | COc1ccc(/C(C)=N\NC(=O)c2ccco2)cc1 | – | inactive: -5.18%
35 | Cc1sc2nc(COC(=O)CNC(=O)c3ccc(F)cc3Cl)[nH]c(=O)c2c1C | – | inactive: 9.22%
36 | Cc1ccc(CN2CCSc3ccc(C(=O)NCc4ccccn4)cc32)cc1 | inconclusive: 35.5 µM [activator, single point] | –
37 | O=C(N/N=C/c1cccc(O)c1)c1cc(-c2ccccc2)nc2ccccc12 | inconclusive: 39.8 µM [activator, single point] | –
38 | CCOC(=O)N1CCN(C(=O)C[C@H]2C[C@@]3(C(=O)OC)C(=C[C@H](C4CCCC4)O[C@@H]3C)N(CCC3=CCCCC3)C2=O)CC1 | inconclusive: 28.2 µM [activator, single point] | –
39 | O=C(Nc1ccccc1O)c1cc(S(=O)(=O)N2CCOCC2)ccc1Cl | inconclusive: 7.08 µM [activator, partial curve] | –
40 | CC(Oc1ccccc1)C(=O)Nc1cccc(-c2cn3cccnc3n2)c1 (stereo not drawn) | – | inactive: 4.57%
41 | Cc1cccc(CNC(=O)c2oc3c(c2C)-c2nn(Cc4cccc(Cl)c4)cc2CC3)c1 | inconclusive: 28.2 µM [activator, single point] | –
42 | CC(C)(C)OC(=O)N1CCC(c2c(C(=O)NC3CC3)cnn2-c2ccc(Cl)cc2)CC1 | inconclusive: 35.5 µM [activator, partial curve, poor fit] | –

Row | Structure (SMILES) | Potency | growth rescue (activation)
43 | COc1cc(Br)c(-c2sc(Nc3ccccc3)n[n+]2-c2ccc(F)cc2)cc1OC | inconclusive: 31.6 µM [activator, single point] | –
44 | CC1CCc2c(C(=O)NCc3ccccn3)csc2C1 (stereo not drawn) | – | inconclusive: -87% [activator]
45 | COc1ccc(NC(=O)Cn2c(=O)oc3cc(S(=O)(=O)NCc4ccccc4)ccc32)c(OC)c1 | inconclusive: 35.5 µM [activator, partial curve, poor fit] | –
46 | O=C(CSC1=Nc2ccccc2C2=NC(Cc3ccccc3)C(=O)N12)Nc1ccccc1C(F)(F)F (stereo not drawn) | inconclusive: 35.5 µM [activator, single point] | –
47 | CC1=CC2(C(Cc3ccccc3)N(CC3CC3)C(=NC(=O)c3ccccc3)N2C(=O)OCc2ccccc2)n2c(=O)n(-c3ccccc3)c(=O)n2C1 (stereo not drawn) | inconclusive: 25.1 µM [activator, single point] | –
48 | Fc1cccc(-c2cc3nc4c(c(N5CCOCC5)n3n2)CCCC4)c1 | inconclusive: 31.6 µM [activator, single point] | –
49 | Cc1cccc(-n2c(=O)[nH]c3c(C(N)=O)nc(CC(C)C)nc32)c1 | – | inactive: -0.394%
50 | CCOC(=O)N1CCN(C(=O)C2CCN(S(=O)(=O)c3cc(Cl)ccc3Cl)CC2)CC1 | inconclusive: 3.55 µM [activator, full curve, poor fit] | –
51 | O=C(CSc1ccc2nnc(-c3ccccc3)n2n1)NCc1ccco1 | inconclusive: 28.2 µM [activator, partial curve, poor fit] | –
52 | COc1ccc(C)cc1N(CC(=O)NCCSCc1ccco1)S(=O)(=O)c1ccc(C)cc1 | inconclusive: 14.1 µM [activator, partial curve] | –
53 | Cc1cc(NC(=O)CCC(=O)N(c2ccccc2)C2(C(=O)NC3CCCCC3)CCCC2)no1 | inconclusive: 25.1 µM [activator, partial curve, poor fit] | –
54 | CCOC(=O)c1cc(C#N)c(N2CCN(C(=O)c3cccc(C(F)(F)F)c3)CC2)nc1C(F)(F)F | inconclusive: 15.8 µM [activator, partial curve, poor fit] | –
55 | Cc1c(CC(=O)N2CCC(O)CC2)c(=O)oc2cc3c(cc12)CCC1(CCCCC1)O3 | active: 31.6 µM | –
56 | CN(C)C(=O)CSc1nc(-c2cccs2)c(-c2cccs2)[nH]1 | – | inactive: -2.2%
57 | Cc1cccc(-c2nc3nc(C)cc(NCc4ccccc4Cl)n3n2)c1 | – | inactive: -1.16%
58 | O=C(CSc1nnc(-c2ccccc2)n1-c1ccccc1)NN=C/C=C\c1ccccc1[N+](=O)[O-] | inconclusive: 35.5 µM [activator, single point] | –
59 | Cc1ccc(-c2nnn(CC(=O)N(CC3CCCO3)C(C(=O)NC3CCCC3)c3ccc(O)cc3)n2)o1 (stereo not drawn) | active: 28.2 µM | –
60 | c1csc(Cn2c(-c3cccs3)nc3ccccc32)c1 | – | inactive: 23.8%
61 | O=C(COC(=O)CNC(=O)c1ccccc1F)Nc1cccc(S(=O)(=O)N2CCCCCC2)c1 | inconclusive: 31.6 µM [activator, partial curve, poor fit] | –
62 | COc1cccc(CN(C)C(=O)CN2C(=O)NC(c3ccccc3)(c3ccccc3)C2=O)c1 | inconclusive: 25.1 µM [activator, partial curve, poor fit] | –
63 | O=C(NC(=S)Nc1ccc(F)cc1)C1CCCCC1 | – | inactive: -5.37%

Reference: PubChem BioAssay AID1347120 (National Center for Advancing Translational Sciences (NCATS), 2019)
